# Article PMC12040169 (PLOS Biology, 2025)
# Some of the results follow.
# System: T1, C. trachomatis L2/434/Bu expressing GFP (CTL2-GFP)
# T1 construct: L2/434/Bu GFP intracellular growth in HeLa cells
# Parameters: species or system HeLa; C. trachomatis total inclusion area by high-content imaging, normalised to DMSO
# Conditions: total inclusion area; 28.5 h, 10 µM; inhibitor
# How it was run: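 High-content imaging followed the bulk GFP/resorufin measurement: fixed, Hoechst-stained cells were scored for GFP inclusions and host nuclei per well. Total inclusion area and count served as growth proxies, nuclei number as the viability proxy. MIC calculation matched the bulk assay.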
row,SMILES,% of control remaining
1,CC(Nc1cccc2ccccc12)C(=O)N/N=C/c1ccc(O)cc1O (centres unmarked) [CBK262681],24.8882
2,Cc1cc(C)nc(NC(=O)C(C)Oc2ccc(Cl)cc2Cl)n1 (centres unmarked) [CBK265600],89.5506
3,Cc1cc(NC(=O)c2c(F)cccc2F)nc2c1c(=O)oc1ccccc12 [CBK291115],111.861
4,CCc1nc2ccc(C(=O)Nc3ccc4c(c3)CCN4C(C)=O)cn2c1N(C=O)CC [CBK145944],93.6638
5,O=C(Cc1ccccc1F)NCc1nnc(-c2cccs2)o1 [CBK284632],102.621
6,O=C(/C=C/c1ccc2c(c1)OCO2)Nc1ccc(S(=O)(=O)Nc2cnc3ccccc3n2)cc1 [CBK265445],84.4026
7,COC(=O)c1cnc(Sc2ccc(Cl)cc2)nc1C(F)(F)F [CBK009299],0
8,CC(C)C(NS(=O)(=O)c1ccccc1)C(=O)Nc1ccccc1 (centres unmarked) [CBK270001],87.9551
9,Brc1ccc2nc(NCc3ccccn3)nc(-c3ccccc3)c2c1 [CBK266736],83.718
10,CCNC(=O)N1CC2(CCN(CCCCC3NC(=O)NC3=O)CC2)c2ccccc21 (centres unmarked) [CBK126707],94.7224
11,Cc1nc(CN2CCCC(NCc3cccc(C(N)=O)c3)C2)no1 (centres unmarked) [CBK304929],39.2833
12,Cc1c(C(=O)Nc2nccs2)nnn1-c1ccccc1 [CBK287766],84.8897
13,CC(=O)c1c(C)oc2c1cc(NS(=O)(=O)c1ccc(C(=O)O)cc1)c1ccccc12 [CBK299780],75.8632
14,O=C(C1=C(O)C(=O)N(CCCN2CCOCC2)C1c1ccccn1)c1ccccc1 (centres unmarked) [CBK266604],124.462
15,Cc1cc(Cl)c(OCCNCCN)c(Br)c1 [CBK265079],103.816
16,CCn1c(C)cc(C(=O)NC2CCN(c3ncccc3C#N)CC2)c1C [CBK306524],80.9175
17,c1ccc(CC2CCN(Cc3cccnc3)CC2)cc1 [CBK126381],93.3382
18,Cc1ncsc1CCOc1nccc(C(F)(F)F)n1 [CBK115798],84.5094
19,CCCSc1nc2c(c(=O)[nH]1)C(c1ccncc1)C1=C(CCCC1=O)N2 (centres unmarked) [CBK287606],104.14
20,COc1ccc(N(CC(=O)O)S(=O)(=O)c2ccccc2[N+](=O)[O-])c(OC)c1 [CBK262729],125.632
21,Cc1cc(C)c(OCCOCCN2CCN(C)CC2)c(Cl)c1 [CBK263744G],112.19

row,SMILES,% of control remaining
1,Cc1cnc(CNC(=O)Cn2nnc(-c3ccc(CN4CCC(C)CC4)cc3)n2)cn1 [CBK137067C],118.5
2,O=S(=O)(Nc1nnn[nH]1)c1ccc(F)cc1 [CBK050473],89.1288
3,Cc1ccc(-c2csc(C3CN4CCCC4CO3)n2)s1 (centres unmarked) [CBK304113],76.6002
4,Nc1nc(SCC(=O)NCc2ccco2)n[nH]1 [CBK266572],111.971
5,O=C(OCCC1SC(NC2CC3C=CC2C3)=NC1=O)c1ccc(Cl)c([N+](=O)[O-])c1 (centres unmarked) [CBK200060T],36.5242
6,COc1cccc(C(=O)NC[C@H]2CC[C@H](c3cc(C(N)=O)c4ccccc4n3)CC2)c1OC [CBK285919],104.031
7,CS(=O)(=O)Nc1ccc2[nH]ccc2c1 [CBK062728],81.3114
8,CCCNC(=O)COc1ccc(CC)cc1 [CBK058199],40.823
9,CC(=O)NC(c1ccccn1)C1CCN(Cc2cccc(F)c2)CC1 (centres unmarked) [CBK285461],84.7776
10,CC(=O)c1ccc(NC(=O)Nc2nnc(CCN3CCCC3)s2)cc1 [CBK174990],34.7768
11,O=C(OCc1ccccc1)N1CCC2(CC1)CN(c1ccc([N+](=O)[O-])cn1)CCO2 [CBK161111T],74.6487
12,COc1ccc(/C=C2/SC(=O)N(CCNC3=NS(=O)(=O)c4ccccc43)C2=O)cc1 [CBK265545],82.6876
13,O=C1NCCN1CCOc1nccnc1-c1ccsc1 [CBK106766],97.179
14,C/C(=N\Nc1nnc2c(n1)[nH]c1ccccc12)c1ccccn1 [CBK262054],1.05
15,O=C(O)CCCC(=O)NC(Cc1ccccc1)C(=O)Nc1ccc([N+](=O)[O-])cc1 (centres unmarked) [CBK299806],111.82
16,O=C(O)c1cc(S(=O)(=O)Nc2ccccc2)ccc1O [CBK109969],75.3983
17,COC1C(O)C(CO)OC1n1cc(C)c(=O)[nH]c1=O (centres unmarked) [CBK201251],126.19
18,CCCc1cc(C(=O)N[C@@H]2CCOC[C@H]2Oc2ccc(CO)cc2)cs1 [CBK306700],53.1333
19,CCN(CC)CCCNC(=O)N1CCCCC1CO (centres unmarked) [CBK155982],78.2325
20,COc1ccc(NC(=O)CSc2nc3c(N)ncnc3[nH]2)cc1 [CBK218441],107.446
